Results from the supplement of paper PMC11880418.
Counter-ions that a name gives are not always drawn. This is one part of the list. The data scatter; read single values as rough.

Assays:
Assay in all cases: ALDHbr (CSC) cell proportion score relative to DMSO vehicle (ratio to DMSO); breast (SUM159) / gastric (MKN45) / pancreatic (PANC1) / colon cancer lines; ALDHbr cells have high ALDH activity and are rich in cancer stem cells (CSC); higher = more CSC (ALDHbr) cells remaining
Details in all cases: 10 µM; 72 h
MKN45 = system: MKN45
PANC1 = system: PANC1
SUM159 = system: SUM159
T84 = system: T84
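Further: High-content imaging of ALDEFLUOR-stained cells with Hoechst-labelled nuclei in 384-well plates, triplicate wells, scored as Z-score against 0.1% DMSO vehicle, negative meaning fewer ALDHbr cells.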

SMILES	ALDHbr (MKN45)	ALDHbr (PANC1)	ALDHbr (SUM159)	ALDHbr (T84)
CC(=O)S[C@@H]1CC2=CC(=O)CC[C@]2(C)[C@H]2CC[C@@]3(C)[C@@H](CC[C@@]34CCC(=O)O4)[C@H]12 [Spironolactone]	0.739	0.824	0.742	1.08
CC(=C(CCO)SSCC1CCCO1)N(C=O)Cc1cnc(C)nc1N (stereo in doubt) [Fursultiamine Hydrochloride]	0.822	0.948	0.881	0.766
CN(C/C=C/C#CC(C)(C)C)Cc1cccc2ccccc12 [Terbinafine]	0.729	0.947	0.872	1.08
CS(=O)(=O)c1ccc(C2=C(c3ccccc3)C(=O)OC2)cc1 [Rofecoxib]	1.08	0.929	1.45	1.15
CN(C)CCCC1(c2ccc(F)cc2)OCc2cc(C#N)ccc21 (stereo not drawn) [Citalopram Hydrobromide]	1.04	0.884	0.896	0.937
O=C(N/N=C/c1ccc([N+](=O)[O-])o1)c1ccc(O)cc1 [Nifuroxazide]	0	0.124	0.154	0.00992
N=C(N)NC(=O)c1nc(Cl)c(N)nc1N [Amiloride hydrochloride dihydrate]	1.09	0.793	1.02	0.925
OC(CNCC(O)C1CCc2cc(F)ccc2O1)C1CCc2cc(F)ccc2O1 (stereo not drawn) [Nebivolol hydrochloride]	0.989	0.984	1.13	0.376
CC(=O)[C@H]1CC[C@H]2[C@@H]3C[C@H](C)C4=CC(=O)CC[C@]4(C)[C@H]3[C@@H](O)C[C@]12C [Medrysone]	0.645	0.71	0.851	0.803
NCCc1cc[nH]n1 [Betazole hydrochloride]	1.19	0.904	1.04	0.893
CN(C)CCc1c[nH]c2ccc(Cn3cncn3)cc12 [Rizatriptan benzoate]	1.22	0.958	0.698	0.935
NC(=O)N/N=C/c1ccc([N+](=O)[O-])o1 [Nitrofural]	0.547	0.714	0.66	0.635
O=C(O)c1ccccc1OP(=O)(O)O [Fosfosal]	0.956	0.858	1.01	0.947
Nc1nc(CC(=O)Nc2ccc(CCNC[C@H](O)c3ccccc3)cc2)cs1 [Mirabegron]	1.01	0.838	2.25	0.916
O=C(O)c1cn(-c2ccc(F)cc2)c2cc(N3CCNCC3)c(F)cc2c1=O [Sarafloxacin]	0.936	0.881	0.933	1.01
Cc1ccccc1N1C(=O)c2cc(S(N)(=O)=O)c(Cl)cc2NC1C (stereo not drawn) [Metolazone]	0.841	0.782	0.902	0.844
Clc1ccc(C(Cn2ccnc2)OCc2c(Cl)cccc2Cl)c(Cl)c1 (stereo not drawn) [Isoconazole]	0.978	0.859	0.988	0.991
CN(C)CCn1nnnc1SCC1=C(C(=O)O)N2C(=O)[C@@H](NC(=O)Cc3csc(N)n3)[C@H]2SC1 [Cefotiam hydrochloride]	0.994	0.899	0.835	0.915
CC(C)(Oc1ccc(C2CC2(Cl)Cl)cc1)C(=O)O (stereo not drawn) [Ciprofibrate]	1.02	0.93	1.03	1.08
NC(=O)N1c2ccccc2CC(=O)c2ccccc21 [Oxcarbazepine]	1.1	0.993	0.975	1.06
CC(=O)Oc1ccccc1C(=O)Oc1ccccc1C(=O)O [Acetylsalicylsalicylic acid]	1.01	0.883	0.808	0.902
CC[N+](C)(CC)CCOC(=O)C1c2ccccc2Oc2ccccc21 [Methantheline bromide]	1.02	0.944	0.876	0.943
CN(C)CCCN1c2ccccc2CCc2ccc(Cl)cc21 [Clomipramine hydrochloride]	0.99	1.01	0.781	0.821
Cc1c(Nc2ncccc2C(=O)O)cccc1C(F)(F)F [Flunixin meglumine]	0.889	0.892	0.977	0.811
O=C(O)[C@H]1/C(=C/CO)O[C@@H]2CC(=O)N21 [Clavulanate potassium salt]	1.17	1.04	0.897	0.914
CN1C(=O)OC(C)(C)C1=O [Trimethadione]	0.924	0.932	1.01	0.946
CCCOc1ccccc1-c1nc2[nH]nnc2c(=O)[nH]1 [Zaprinast]	0.991	0.916	1.43	0.995
